The whole screen tested about 52,000 compounds, of which about 4,300 (8.3%) were called active. Rule as the data show it: active = survival mostly below about 52% (no sharp cut-off); inactive = mostly above about 56%. Some of the results follow.
Tested on: DeltatarO mutant
Assay: S. aureus survival, RN4220 and DeltatarO strains – OD600, teichoic acid synthesis inhibitors, primary screen (AID 463173)
Conditions: S. aureus RN4220 wild type/DeltatarO growth, OD600, 18 h, active compounds read low, screened at 18.75 µg/mL (by protocol)

Row | Structure (SMILES) | survival
1 | COc1ccc(/C=C\c2onc(C)c2S(=O)(=O)N2CCC(C(=O)Nc3ccc(F)cc3F)CC2)cc1 | inactive: 65%
2 | O=C(NCc1ccccc1Cl)c1ccc2c(c1)NC(=O)C(CS(=O)(=O)Cc1ccc(F)cc1Cl)N2 (stereo unspecified) | inactive: 81%
3 | O=C(NCCc1ccc(Cl)cc1)c1cnc2sc(N3CCOCC3)nn2c1=O | inactive: 77%
4 | COc1cc(OC)c(Nc2nc3ccccc3c3nncn23)cc1Cl | inactive: 119%
5 | O=C(O)CN1CC(=O)Nc2ccccc21 | inactive: 88%
6 | CCc1ccc(CNC(=O)c2cc(=O)[nH]c3ccc(S(=O)(=O)N4CCCCC4)cc23)cc1 | inactive: 86%
7 | CCOC(=O)c1c(C)oc2nc(C)nc(Nc3ccc(C)c(Cl)c3)c12 | inactive: 89%
8 | CCOC(=O)c1c(NC(=O)c2cc(C(C)C)on2)sc(C(C)=O)c1C | inactive: 123%
9 | Cc1c(Cl)ccc2sc(N3CCN(C(=O)C(C)C)CC3)nc12 | inactive: 107%
10 | Cc1ccc(Sc2c(C)nn(-c3ccccc3)c2OC(=O)C(C)(C)C)cc1 | active: -10%
11 | Cc1ccc(-c2cc(C(=O)Nc3cc([N+](=O)[O-])ccc3C)no2)cc1F | inactive: 50%
12 | COC(=O)c1c(NC(=O)C(C)Oc2ccc(Cl)c(C)c2)sc(C)c1C (stereo unspecified) | active: 15%
13 | COc1ccc(OC)c(NS(=O)(=O)c2cc3c(cc2Cl)N(C(C)=O)CCO3)c1 | inactive: 75%
14 | CCCC(=O)Nc1nncs1 | inactive: 73%
15 | CCOc1ccc(NC(=O)CC2C(=O)N(c3ccc(F)cc3)C(=O)N2Cc2ccc(OC)c(OC)c2)cc1 (stereo unspecified) | inactive: 90%
16 | Cc1ccc(C)c2sc(NC(=O)c3ccc(S(=O)(=O)N4CCC(C)CC4)cc3)nc12 | inactive: 83%
17 | O=C(CSc1nc2cc(C(=O)NC3CCCC3)ccc2c(=O)n1CC1CCCO1)c1cccc(Cl)c1 (stereo unspecified) | active: 20%
18 | CCN1C(=O)c2ccccc2S(=O)c2ccc(C(=O)NCc3ccc(OC)cc3)cc21 (stereo unspecified) | inactive: 66%
19 | COc1ccc(OC)c(CCNC(=O)CS(=O)(=O)Cc2nc(-c3cccc(Cl)c3)oc2C)c1 | inactive: 56%
20 | CCOC(=O)c1ccc(N2C(=O)c3n[nH]c(-c4cccs4)c3C2c2ccc(OCC)cc2)cc1 (stereo unspecified) | inactive: 93%
21 | COc1ccc(CCNc2oc(/C=C/c3cc(OC)c(OC)c(OC)c3)nc2C#N)cc1OC | inactive: 56%
22 | CCCc1nc(NCCc2cccs2)c2nnn(Cc3ccccc3Cl)c2n1 | inactive: 85%

Row | Structure (SMILES) | survival
23 | CCOC(=O)c1ccc(N2C(=O)c3[nH]nc(-c4ccccc4)c3C2c2ccc(CC)cc2)cc1 (stereo unspecified) | inactive: 100%
24 | CCOc1ccccc1C(=O)N(Cc1ccco1)Cc1ccco1 | inactive: 73%
25 | Cc1c(Cl)cccc1NC(=O)CC1Oc2ccccc2NC1=O (stereo unspecified) | inactive: 89%
26 | COc1ccccc1CNC(=O)C1CCCN(S(=O)(=O)c2ccc3c(c2)oc(=O)n3C)C1 (stereo unspecified) | inactive: 83%
27 | COc1ccc(-c2cc(C(=O)Nc3c(C(=O)c4ccc(C)cc4)oc4ccccc34)no2)cc1 | inactive: 48%
28 | O=C(c1ccc2c(c1)N(Cc1ccccc1F)C(=O)c1ccccc1S2(=O)=O)N1CCC(Cc2ccccc2)CC1 | inactive: 71%
29 | O=C(Cn1c(=O)n(Cc2nc(-c3ccccc3)no2)c(=O)c2ccccc21)Nc1cccc(C(F)(F)F)c1 | inactive: 83%
30 | CCCn1c(N2CCN(CC(=O)Nc3ccc(Cl)cc3)CC2)nc2ccccc21 | inactive: 77%
31 | O=c1c2sc3ccccc3c2n(Cc2cccc(F)c2)c(=O)n1Cc1ccccc1 | inactive: 78%
32 | CCOC(=O)Cn1c(=O)n(CC2CCCO2)c2nc(-c3ccccc3OC)nc(C(N)=O)c21 (stereo unspecified) | inactive: 70%
33 | O=C(NCc1cccs1)c1ccc2c(=O)n3nc(Nc4ccccc4)sc3nc2c1 | inactive: 96%
34 | CCN(c1ccccc1)S(=O)(=O)c1ccc(NC(=O)c2nc(SC)ncc2Cl)cc1 | inactive: 55%
35 | CCN(CC)c1ccc(NC(=O)C2CCN(c3nnc(-n4cccc4)s3)CC2)c(C)c1 | inactive: 70%
36 | Cc1cc(C)n(C(C)CC(=O)Nc2cccc(C(F)(F)F)c2)n1 (stereo unspecified) | inactive: 73%
37 | O=C(CCCn1c(=O)c2cccn2c2ccccc21)Nc1cc(C(F)(F)F)ccc1Cl | inactive: 62%
38 | Cn1cc(-c2cc3n(n2)CCC(=O)N3CCCC(=O)NCc2ccc(Cl)cc2)c2ccccc21 | inactive: 122%
39 | CC(C(=O)Nc1ccccc1C(=O)N1CCCC1)n1nnc2ccccc21 (stereo unspecified) | inactive: 77%
40 | CCC(CC)C(=O)OCc1cc(=O)n2nc(C3CC3)sc2n1 | inactive: 62%
41 | CC1=C(c2ccc(Cl)cc2)S(=O)(=O)NC1=NCCCN1CCN(c2cc(C)ccc2C)CC1 | inactive: 78%
42 | CC1C(=O)Nc2ccc(S(=O)(=O)N3CCCCC3)cc2NC1=O (stereo unspecified) | inactive: 73%
43 | O=C(CSc1nccn1Cc1ccccc1)NCc1ccco1 | inactive: 80%
44 | COc1ccc(Cn2c(CCC(=O)Nc3cc(OC)c(OC)c(OC)c3)nc3cccnc32)cc1 | inactive: 128%

Row | Structure (SMILES) | survival
45 | CCOc1ccc(NCc2cccn2-c2nnc(N3CCC(C(=O)NCC(C)c4ccccc4)CC3)s2)cc1 (stereo unspecified) | inactive: 79%
46 | CCOc1ccccc1NC(=O)CN1C(=O)COc2ccc(S(=O)(=O)N3CCOCC3)cc21 | inactive: 94%
47 | CC(C)C(OC(=O)c1cc2occc2n1C(C)C)C(=O)NCC1CCCO1 (stereo unspecified) | inactive: 67%
48 | COc1ccc(-n2c(-c3ccc(C)cc3)cc3c2CC(C)(C)CC3=O)cc1Cl | inactive: 80%
49 | CC1CCN(C(=O)Cn2c(=O)n(CC3CCC(C(=O)NC(C)C)CC3)c(=O)c3sccc32)CC1 (stereo unspecified) | inactive: 88%
50 | CCOC(=O)c1ccc(NC(=O)CC2C(=O)N(c3ccc(F)cc3)C(=O)N2Cc2cccnc2)cc1 (stereo unspecified) | inactive: 95%
51 | COc1ccc(-c2nc(SCC(=O)NC3CCCC3)c(-c3ccc(F)cc3)[nH]2)cc1 | inactive: 75%
52 | Cc1[nH]c(=O)[nH]c(=O)c1N | inactive: 93%
53 | O=C(Nc1cc(-c2nc3ccccc3o2)ccc1Cl)c1sc2c([N+](=O)[O-])cccc2c1Cl | inactive: 76%
54 | CC(C)(C)OC(=O)N1CCC(c2c(C(=O)NCc3cccc(Cl)c3)cnn2-c2ccc(F)cc2)CC1 | inactive: 94%
55 | CCOc1ccc(CN2CCc3nc(N4CCN(c5ccccc5OC)CC4)ncc3C2)cc1OC | inactive: 115%
56 | CCc1ccccc1NC(=O)CSc1nc(-c2cccc(Cl)c2)nc2c1Cc1c(CO)cnc(C)c1O2 | inactive: 50%
57 | CCN1CCCC1CNC(=O)Nc1c[nH]c2ccc(OC)cc2c1=O (stereo unspecified) | inactive: 102%
58 | COc1cc(/C=C(\C#N)C(=O)NCC2CCCO2)ccc1O (stereo unspecified) | inactive: 83%
59 | CC(=O)Nc1ccc(NC(=O)CCc2nc3cccnc3n2Cc2cccs2)cc1 | inactive: 95%
60 | Cc1cc(C)nc(SCc2noc(-c3ccc(Cl)cc3)n2)n1 | inactive: 97%
61 | Cc1ccc(NC(=O)Cn2nc(C(=O)Nc3ccc(C)cc3)ccc2=O)cc1 | inactive: 74%
62 | CC1CCN(Cc2c(O)ccc3c(=O)c(Oc4ccccc4Cl)c(C(F)(F)F)oc23)CC1 | inactive: 83%
63 | NC(=Nc1ccccc1)SC1CC(=O)N(c2ccccc2)C1=O (stereo unspecified) | inactive: 93%
64 | COc1ccc(CNS(=O)(=O)c2ccc(N3CCCCS3(=O)=O)cc2)cc1 | inactive: 74%
65 | Cc1ccc(C(=O)Nc2ccc3c(c2)n(C)c(=O)c(=O)n3C)cc1 | inactive: 91%
66 | O=C(COc1ccccc1F)Nc1ccc2nc(SCCOc3ccccc3)sc2c1 | inactive: 86%

Row | Structure (SMILES) | survival
67 | Cc1ccc(NC(=O)Cn2c(=O)n(Cc3nc(-c4ccccc4)no3)c(=O)c3cc4c(cc32)OCO4)cc1F | inactive: 80%
68 | COc1ccc(NC(=O)CC2C(=O)N(c3cccc(OC)c3)C(=O)N2CCc2cccs2)cc1 (stereo unspecified) | inactive: 74%
69 | CC(C)c1ccc(Cn2c(COc3ccccc3)nc3ccccc32)cc1 | active: -1%
70 | COc1ccc(S(=O)(=O)NCC(c2ccco2)S(=O)(=O)c2ccc(C)cc2)cc1F (stereo unspecified) | inactive: 75%
71 | Cc1ccc(S(=O)(=O)N2CCCC(c3nc4c(nnn4Cc4ccc(OC(F)(F)F)cc4)c(=O)[nH]3)C2)cc1 (stereo unspecified) | inactive: 80%
72 | O=C(Cn1c(=O)nc(-c2ccccc2)c2cc(Cl)ccc21)NCc1ccccc1 | inactive: 83%
73 | CCOC(=O)c1ccc2c(c1)N(Cc1cccc([N+](=O)[O-])c1)C(=O)c1ccccc1S2 | inactive: 80%
74 | CCc1cccc(CC)c1NC(=O)c1cc(S(=O)(=O)N2CCc3ccccc32)cn1C | inactive: 68%
75 | COC(=O)c1c(NC(=O)CCCOc2ccc(C)cc2)sc2c1C(C(=O)OC)CC2 (stereo unspecified) | inactive: 44%
76 | Cc1ccc(CN2CCCn3nc(C(=O)NCCN(C)C)cc3C2=O)cc1 | inactive: 99%
77 | COc1ccc(-c2ccc(NS(=O)(=O)c3ccc(F)c(C(F)(F)F)c3)cc2)nn1 | inactive: 117%
78 | CCOC(=O)c1c(C)[nH]c(C)c1S(=O)(=O)N1CCC(C(=O)NCc2ccccc2)CC1 | inactive: 81%
79 | Cc1ccc(C)c(OCCSc2nc3ccccc3n2CC(=O)N2CCOCC2)c1 | inactive: 55%
80 | COc1ccc2c(c1)c1c(c(=O)n(Cc3ccccc3)c(=O)n1Cc1cc(C)ccc1C)n2C | inactive: 76%
81 | Cc1nc2ccn(Cc3ccco3)c(=O)c2cc1C(=O)N1CCN(c2ccccc2F)CC1 | inactive: 93%
82 | COc1ccc(NC(=O)Cc2coc3cc(C)cc(C)c23)c(OC)c1 | inactive: 60%
83 | COc1cccc(OCc2nc3ccccc3n2CCOc2ccccc2)c1 | active: 35%
84 | Cc1nn2c(=O)cc(COC(=O)c3ccccc3NC(=O)c3ccccc3C)nc2s1 | inactive: 104%
85 | O=C(N1CCCCC1)C1(c2ccccc2)CCOCC1 | inactive: 105%
86 | COc1ccc(NC(=O)CC2C(=O)N(c3ccc(C)cc3)C(=O)N2CCc2ccccc2)cc1 (stereo unspecified) | inactive: 62%

Source: PubChem BioAssay AID463173 (ICCB-Longwood Screening Facility, Harvard Medical School, 2010)
